Measurements: the supplement of paper PMC4967469

How the values were obtained:
Test in all cases: Viability of human cancer cell lines after 72 h of drug (GDSC screen)
[1] = compound: CN1CCN(c2ccc([N+](=O)[O-])c3no[n+]([O-])c23)CC1 [NSC-207895]; conditions: top dose 20 µM; top dose inferred
Experimental: (§1)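 Human cancer cell lines in 384-well plates, medium with 10% serum, drug for 72 h over a 256-fold dose range (nine 2-fold or five 4-fold steps up to the top dose). Adherent lines were fixed and stained with the nucleic acid dye Syto60, suspension lines read with resazurin; signal relative to control wells, capped at 0 and 100%. One two-parameter sigmoid per drug and line, fitted in a mixed model over all curves with the slope shared within a line.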

[2] = compound: COC(=O)[C@H](CCSC)NC(=O)c1ccc(NC[C@@H](N)CS)cc1-c1ccccc1 [FTI-277]; conditions: top dose 1.024 µM; top dose inferred
Experimental: as §1

[3] = compound: CC1(C)CNc2cc(NC(=O)c3cccnc3NCc3ccncc3)ccc21 [AMG-706]; conditions: top dose 2 µM; top dose inferred
Experimental: as §1

[4] = compound: CCOc1nc(NC(=O)Cc2cc(OC)ccc2OC)cc(N)c1C#N [JNK Inhibitor VIII]; conditions: top dose 10 µM; top dose inferred
Experimental: as §1

[5] = compound: Cc1sc2c(c1C)C(c1ccc(Cl)cc1)=N[C@@H](CC(=O)OC(C)(C)C)c1nnc(C)n1-2 [JQ1]
Experimental: as §1

[6] = compound: Cc1ccc(C(=O)N(CCCN)[C@@H](c2nc3cc(Cl)ccc3c(=O)n2Cc2ccccc2)C(C)C)cc1 [SB-715992]; conditions: top dose 0.128 µM; top dose inferred
Experimental: as §1

[7] = compound: CC(=O)O[C@@]12CO[C@@H]1C[C@H](O)[C@@]1(C)C(=O)[C@H](O)C3=C(C)[C@@H](OC(=O)[C@H](O)[C@@H](NC(=O)OC(C)(C)C)c4ccccc4)C[C@@](O)([C@@H](OC(=O)c4ccccc4)[C@H]21)C3(C)C [Docetaxel]; conditions: top dose 0.0125 µM
Experimental: as §1

[8] = compound: O=C(/C=C/c1cccc(S(=O)(=O)Nc2ccccc2)c1)NO [Belinostat]; conditions: top dose 20 µM; top dose inferred
Experimental: as §1

[9] = compound: c1ccc2c(CCNc3ccc(Nc4ccncc4)cc3)c[nH]c2c1 [JNJ-26854165]; conditions: top dose 10 µM
Experimental: as §1

[10] = compound: COCC[n+]1c2c(n(Cc3cnccn3)c1C)C(=O)c1ccccc1C2=O [YM155]; conditions: top dose 5.12 µM
Experimental: as §1

[11] = compound: C[C@]1(O)C[C@@H](c2nc(-c3ccc4ccc(-c5ccccc5)nc4c3)c3c(N)nccn32)C1 [OSI-906]; conditions: top dose 2.56 µM; top dose inferred
Experimental: as §1

[12] = top dose 1 µM, screen: GDSC drug entry 1218, top dose inferred
[13] = top dose 2.56 µM, screen: GDSC drug entry 163

A431 (skin, adherent)
AUC [1]: 0.845 | IC50 [1]: 13600 nM | AUC [2]: 0.987 | IC50 [2]: > 1020 nM | AUC [3]: 0.987 | IC50 [3]: > 2000 nM | AUC [4]: 0.988 | IC50 [4]: > 10000 nM | AUC [5, 12]: 0.978 | IC50 [5, 12]: > 1000 nM | AUC [5, 13]: 0.602 | IC50 [5, 13]: 301 nM | AUC [6]: 0.692 | IC50 [6]: 26.8 nM | AUC [7]: 0.53 | IC50 [7]: 0.937 nM | AUC [8]: 0.255 | IC50 [8]: 258 nM | AUC [9]: 0.91 | IC50 [9]: > 10000 nM | AUC [10]: 0.023 | IC50 [10]: < 20 nM

BICR22 (head and neck, adherent)
AUC [1]: 0.983 | IC50 [1]: > 20000 nM | AUC [2]: 0.918 | IC50 [2]: > 1020 nM | AUC [3]: 0.943 | IC50 [3]: > 2000 nM | AUC [4]: 0.924 | IC50 [4]: > 10000 nM | AUC [11]: 0.952 | IC50 [11]: > 2560 nM | AUC [5, 12]: 0.946 | IC50 [5, 12]: > 1000 nM | AUC [5, 13]: 0.96 | IC50 [5, 13]: > 2560 nM | AUC [6]: 0.983 | IC50 [6]: > 128 nM | AUC [7]: 0.376 | IC50 [7]: 0.336 nM | AUC [8]: 0.64 | IC50 [8]: 3230 nM | AUC [9]: 0.746 | IC50 [9]: 3580 nM

C-4-I (cervix, adherent)
AUC [1]: 0.977 | IC50 [1]: > 20000 nM | AUC [2]: 0.972 | IC50 [2]: > 1020 nM | AUC [3]: 0.982 | IC50 [3]: > 2000 nM | AUC [4]: 0.985 | IC50 [4]: > 10000 nM | AUC [11]: 0.982 | IC50 [11]: > 2560 nM | AUC [5, 12]: 0.748 | IC50 [5, 12]: 346 nM | AUC [5, 13]: 0.74 | IC50 [5, 13]: 829 nM | AUC [6]: 0.869 | IC50 [6]: > 128 nM | AUC [7]: 0.686 | IC50 [7]: 2.72 nM | AUC [8]: 0.692 | IC50 [8]: 4540 nM | AUC [9]: 0.839 | IC50 [9]: 7690 nM

CFPAC-1 (pancreas, adherent)
AUC [1]: 0.953 | IC50 [1]: > 20000 nM | AUC [2]: 0.95 | IC50 [2]: > 1020 nM | AUC [3]: 0.951 | IC50 [3]: > 2000 nM | AUC [4]: 0.968 | IC50 [4]: > 10000 nM | AUC [5, 12]: 0.982 | IC50 [5, 12]: > 1000 nM | AUC [5, 13]: 0.652 | IC50 [5, 13]: 450 nM | AUC [6]: 0.959 | IC50 [6]: > 128 nM | AUC [7]: 0.794 | IC50 [7]: 6.71 nM | AUC [8]: 0.915 | IC50 [8]: > 20000 nM

Caov-4 (ovary, adherent)
AUC [2]: 0.969 | IC50 [2]: > 1020 nM | AUC [3]: 0.977 | IC50 [3]: > 2000 nM | AUC [4]: 0.98 | IC50 [4]: > 10000 nM | AUC [11]: 0.9 | IC50 [11]: > 2560 nM | AUC [5, 12]: 0.975 | IC50 [5, 12]: > 1000 nM | AUC [5, 13]: 0.937 | IC50 [5, 13]: > 2560 nM | AUC [6]: 0.894 | IC50 [6]: > 128 nM | AUC [7]: 0.968 | IC50 [7]: > 12.5 nM | AUC [9]: 0.956 | IC50 [9]: > 10000 nM

FU-OV-1 (ovary, adherent)
AUC [1]: 0.907 | IC50 [1]: > 20000 nM | AUC [2]: 0.972 | IC50 [2]: > 1020 nM | AUC [3]: 0.979 | IC50 [3]: > 2000 nM | AUC [4]: 0.963 | IC50 [4]: > 10000 nM | AUC [11]: 0.556 | IC50 [11]: 238 nM | AUC [5, 12]: 0.769 | IC50 [5, 12]: 501 nM | AUC [5, 13]: 0.488 | IC50 [5, 13]: 147 nM | AUC [6]: 0.898 | IC50 [6]: > 128 nM | AUC [7]: 0.881 | IC50 [7]: > 12.5 nM | AUC [8]: 0.786 | IC50 [8]: 11700 nM | AUC [9]: 0.887 | IC50 [9]: > 10000 nM

H4 (glioma, adherent)
AUC [1]: 0.968 | IC50 [1]: > 20000 nM | AUC [2]: 0.982 | IC50 [2]: > 1020 nM | AUC [3]: 0.982 | IC50 [3]: > 2000 nM | AUC [4]: 0.986 | IC50 [4]: > 10000 nM | AUC [11]: 0.983 | IC50 [11]: > 2560 nM | AUC [5, 12]: 0.985 | IC50 [5, 12]: > 1000 nM | AUC [5, 13]: 0.592 | IC50 [5, 13]: 285 nM | AUC [6]: 0.613 | IC50 [6]: 16.3 nM | AUC [7]: 0.686 | IC50 [7]: 2.57 nM | AUC [9]: 0.581 | IC50 [9]: 1040 nM

H290 (mesothelioma, adherent)
AUC [2]: 0.97 | IC50 [2]: > 1020 nM | AUC [3]: 0.987 | IC50 [3]: > 2000 nM | AUC [4]: 0.989 | IC50 [4]: > 10000 nM | AUC [11]: 0.969 | IC50 [11]: > 2560 nM | AUC [5, 12]: 0.976 | IC50 [5, 12]: > 1000 nM | AUC [5, 13]: 0.911 | IC50 [5, 13]: > 2560 nM | AUC [6]: 0.97 | IC50 [6]: > 128 nM | AUC [7]: 0.806 | IC50 [7]: 5.7 nM | AUC [9]: 0.901 | IC50 [9]: > 10000 nM

HCC202 (breast, adherent)
AUC [1]: 0.946 | IC50 [1]: > 20000 nM | AUC [3]: 0.96 | IC50 [3]: > 2000 nM | AUC [4]: 0.979 | IC50 [4]: > 10000 nM | AUC [11]: 0.921 | IC50 [11]: > 2560 nM | AUC [5, 12]: 0.963 | IC50 [5, 12]: > 1000 nM | AUC [6]: 0.917 | IC50 [6]: > 128 nM | AUC [7]: 0.97 | IC50 [7]: > 12.5 nM | AUC [8]: 0.33 | IC50 [8]: 346 nM | AUC [9]: 0.952 | IC50 [9]: > 10000 nM | AUC [10]: 0.156 | IC50 [10]: < 20 nM

Hs746T (stomach, adherent)
AUC [1]: 0.618 | IC50 [1]: 2960 nM | AUC [2]: 0.981 | IC50 [2]: > 1020 nM | AUC [3]: 0.917 | IC50 [3]: > 2000 nM | AUC [4]: 0.936 | IC50 [4]: > 10000 nM | AUC [5, 12]: 0.977 | IC50 [5, 12]: > 1000 nM | AUC [5, 13]: 0.961 | IC50 [5, 13]: > 2560 nM | AUC [6]: 0.788 | IC50 [6]: 78.7 nM | AUC [7]: 0.875 | IC50 [7]: > 12.5 nM | AUC [8]: 0.349 | IC50 [8]: 411 nM | AUC [9]: 0.805 | IC50 [9]: 7300 nM | AUC [10]: 0.044 | IC50 [10]: < 20 nM

NCI-H630 (large intestine, adherent)
AUC [1]: 0.96 | IC50 [1]: > 20000 nM | AUC [2]: 0.976 | IC50 [2]: > 1020 nM | AUC [3]: 0.987 | IC50 [3]: > 2000 nM | AUC [4]: 0.986 | IC50 [4]: > 10000 nM | AUC [5, 12]: 0.987 | IC50 [5, 12]: > 1000 nM | AUC [5, 13]: 0.707 | IC50 [5, 13]: 643 nM | AUC [6]: 0.959 | IC50 [6]: > 128 nM | AUC [7]: 0.973 | IC50 [7]: > 12.5 nM | AUC [8]: 0.486 | IC50 [8]: 1140 nM | AUC [9]: 0.986 | IC50 [9]: > 10000 nM | AUC [10]: 0.828 | IC50 [10]: 3470 nM

IC50 is the fitted dose that halves viability relative to control wells, and lower means more sensitive; where the fit passes the top or lowest dose, that dose stands as a limit. AUC, from the same fit, is the share of area under the viability curve across the 256-fold dose range; values near 1 show little effect. For some of these results: A top dose marked as inferred is not printed in the source and was worked back from the curve model. For some of these results: Drugs with an entry number were screened twice under separate entries, and the two screens often disagree.
